Source: the CheMixHub ionic liquid set
Where “and” joins values, the source holds several entries; their conditions need not be identical. Equal values may be shown once. Further values from the same series stand in other lists.

Assay: xn = mol fraction of the nth substance listed
Settings: 101.3 kPa

CCCC[n+]1ccn(C)c1.[Cl-] + O
viscosity
Settings | x1 = 0.003602 | x1 = 0.003604 | x1 = 0.003614 | x1 = 0.003623 | x1 = 0.00538 | x1 = 0.005432 | x1 = 0.00552 | x1 = 0.005593
298.15 K | – | 0.961 mPa·s | 0.963 mPa·s | 0.974 mPa·s | 1.011 mPa·s | 1.015 mPa·s | 1.005 mPa·s | 1.001 mPa·s and 1.01 mPa·s
308.15 K | 0.785 mPa·s | 0.772 mPa·s | 0.773 mPa·s | 0.783 mPa·s | 0.807 mPa·s | 0.816 mPa·s | 0.801 mPa·s | 0.807 mPa·s
310.15 K | 0.754 mPa·s | 0.742 mPa·s | 0.742 mPa·s | 0.755 mPa·s | 0.775 mPa·s | 0.787 mPa·s | 0.77 mPa·s | 0.773 mPa·s
318.15 K | 0.643 mPa·s | 0.638 mPa·s and 0.639 mPa·s | 0.638 mPa·s | 0.65 mPa·s | 0.666 mPa·s | 0.676 mPa·s | 0.661 mPa·s | 0.664 mPa·s
